The list shows a part of the results. The main result of the screen is listed elsewhere. These columns were measured beside it and carry no call.
Columns and labels:
Test in all cases: Primary Screen for Target Class Profiling of Small Molecule Inhibitors of Methyltransferases
[1] = target: Glycine N-methyltransferase (Homo sapiens) (UniProt Q14749); details: purified enzyme, MTase-Glo SAH luminescence; measured here: GNMT inhibition; at 40 µM; stronger effect = lower value
Method in brief: (§1)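 Each enzyme was assayed with SAM and its substrate. SAH formation detected by MTase-Glo luminescence; single-point 40 uM screen[…].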

[2] = target: Guanidinoacetate N-methyltransferase (Homo sapiens) (UniProt Q14353); details: purified enzyme, MTase-Glo SAH luminescence; measured here: GAMT inhibition; at 40 µM; stronger effect = lower value
Method in brief: as §1

[3] = target: Histamine N-methyltransferase (Homo sapiens) (UniProt P50135); details: purified enzyme, MTase-Glo SAH luminescence; measured here: HNMT inhibition; at 40 µM; stronger effect = lower value
Method in brief: as §1

[4] = target: Nicotinamide N-methyltransferase (Homo sapiens) (UniProt P40261); details: purified enzyme, MTase-Glo SAH luminescence; measured here: NNMT inhibition; at 40 µM; stronger effect = lower value
Method in brief: as §1

[5] = target: Phenylethanolamine N-methyltransferase (Homo sapiens) (UniProt P11086); details: purified enzyme, MTase-Glo SAH luminescence; measured here: PNMT inhibition; at 40 µM; stronger effect = lower value
Method in brief: as §1
% is set by controls: 0 for no effect and ±100 for the full control effect.

Row | Compound | activity change, negative = inhibition [1] [%] | activity change, negative = inhibition [2] [%] | activity change, negative = inhibition [3] [%] | activity change, negative = inhibition [4] [%] | activity change, negative = inhibition [5] [%]
1 | NCCc1c[nH]c2ccc(O)cc12 | 1.15 | 9.29 | -41 | 0.738 | 10.5
2 | COC(=O)C1=COC(C)C2CN3CCC4(C(=O)Nc5ccccc54)C3CC12 (stereo not given) | -4.22 | -2.94 | 1.77 | -14.5 | -3.73
3 | C=C[C@H]1CN2CC[C@H]1C[C@@H]2CNC(=O)CC(C)(C)C | -5.86 | -6.79 | -2.02 | -5.9 | -5.12
4 | Cc1ccc(CN2C[C@@H]3C(=O)N(C)C(=O)[C@@H]3C2)o1 | -8.67 | -10.3 | -4.84 | -5.18 | -7.39
5 | COC(=O)c1ccccc1NC(=O)N1Cc2ccccc2-n2cccc2C1c1ccc(C)cc1 (stereo not given) | 5.41 | 3.07 | -6.07 | -3.82 | -0.716
6 | C[C@@H]1CN(Cc2ccc(F)cc2)CCN1C(=O)COc1ccc(Cl)cc1NC(N)=O | 4.67 | 4.69 | 0.291 | -13.5 | -23.1
7 | Cc1ccccc1C1c2cccn2-c2ccccc2CN1C(=O)Nc1ccccc1Br (stereo not given) | 2.25 | 4.14 | -1.31 | -2.9 | -1.6
8 | CCc1ccc(C2c3cccn3-c3ccccc3CN2C(=O)Nc2cccc(SC)c2)cc1 (stereo not given) | 7.71 | 0 | 1.53 | 1.98 | 5.28
9 | O=C(NCCc1ccccc1)N1Cc2ccccc2-n2cccc2C1c1cccs1 (stereo not given) | 6.61 | 0 | -13.9 | -6.66 | 1.07
10 | CCC1c2cccn2-c2ccccc2CN1C(=O)Nc1cccc(Cl)c1C (stereo not given) | 1.01 | 0 | 2.4 | 10.9 | 8.07
11 | C[C@@H]1CC[C@H]2[C@@H](C)C(=O)O[C@@H]3O[C@@]4(C)CC[C@@H]1[C@]32OO4 |  | -5.34 |  | -17.2 | -13.4
12 | OC1(c2ccc(Cl)cc2)c2ccccc2C2=NCCN21 (stereo not given) | -0.803 | 8.52 | -8.77 | -13.2 | 4.01
13 | COc1c(C(C)C)cc2c(c1O)[C@@]1(C(=O)O)CCCC(C)(C)C1CC2 (stereo not given in full) | -0.021 | -3.53 | -5.46 | -20.6 | -3.38
14 | CCc1ccc(C2c3cccn3-c3ccccc3CN2C(=O)Nc2ccc(OC)c(OC)c2)cc1 (stereo not given) | 8.77 | 1.56 | 3.9 | 6.8 | 5.12
15 | Cc1ccc(NC(=O)N2Cc3ccccc3-n3cccc3C2C)cc1Cl (stereo not given) | 12.4 | 0 | 9.59 | 7.39 | 6.05
16 | CS(=N)(=O)CC[C@H](N)C(=O)O (stereo not given in full) | -9.31 | 1.2 | 0.411 | -3.27 | 5.41
17 | CC1c2cccn2-c2ccccc2CN1C(=O)Nc1cccc(Cl)c1 (stereo not given) | 2.15 | 4.63 | -4.54 | -2 | 2.08
18 | C[C@]12CC[C@H]3[C@@H]([C@H](O)CC4=CC(=O)CC[C@@]43C)[C@@H]1CC[C@@H]2O | 5.73 | 5.28 | 5.69 | -8.65 | 1.5
19 | CCOC(=O)c1ccccc1NC(=O)N1Cc2ccccc2-n2cccc2C1c1ccccc1Cl (stereo not given) | 5.71 | 0 | 0.803 | 1.34 | 0.235
20 | COC(=O)CCNC(=O)N1Cc2ccccc2-n2cccc2C1c1ccccc1Cl (stereo not given) | 7.87 | 0 | 4.81 | 1.96 | 2.18
21 | Cc1c(Cl)c(OCC(=O)N2CCN(C)CC2)nc2sc(C(=O)NC3CC3)c(N)c12 | -4.35 | -3.52 | -4.89 | -20.5 | -9.32

Row | Compound | activity change, negative = inhibition [1] [%] | activity change, negative = inhibition [2] [%] | activity change, negative = inhibition [3] [%] | activity change, negative = inhibition [4] [%] | activity change, negative = inhibition [5] [%]
22 | COc1cccc(NC(=O)N2Cc3ccccc3-n3cccc3C2c2cccc(C)c2)c1 (stereo not given) | 6.65 | 0.148 | -1.99 | -4.53 | -0.69
23 | Cc1ccc(C2c3cccn3-c3ccccc3CN2C(=O)Nc2ccccc2)cc1 (stereo not given) | 10.4 | 1.5 | -1.48 | -6.57 | -1.58
24 | CCOC(=O)c1cccc(NC(=O)N2Cc3ccccc3-n3cccc3C2c2ccc(SC)cc2)c1 (stereo not given) | 2.05 | 3.53 | 4.08 | 6.73 | 10.9
25 | COc1cccc(NC(=O)N2Cc3ccccc3-n3cccc3C2c2ccc(F)cc2)c1 (stereo not given) | -5.15 | 0 | 1.27 | 1.21 | 6.48
26 | Cc1ccc(S(=O)(=O)N[C@@H](CCCCN)C(=O)CCl)cc1 | -19.2 | 5.24 | -2.77 | -5.69 | 5.37
27 | O=C(NCc1ccc(F)cc1)[C@H]1CN2CC[C@H]1C[C@@H]2Cn1cc(-c2ccccc2)nn1 | -5.59 | -6.59 | -6.28 | -9.98 | -0.811
28 | CCCN1CCC[C@@H](c2cccc(O)c2)C1 | 5.46 | 11.6 | -26.6 | -2.39 | 6.81
29 | O=C(C1CCC1)N1[C@H]2CC[C@@H]1c1cnc(-c3ccccc3)nc1C2 | -5.32 | -6.16 | -2.74 | -15.8 | -16.8
30 | O=C(Oc1ccc([N+](=O)[O-])cc1)N1CCC(C(O)(c2ccc3c(c2)OCO3)c2ccc3c(c2)OCO3)CC1 | -1.83 | -26.4 | -1.5 | -31.3 | -9.53
31 | Cc1ccc(C2c3cccn3-c3ccccc3CN2C(=O)Nc2cccc(Br)c2)cc1 (stereo not given) | 12.1 | 0 | 8.9 | 11.6 | 7.58
32 | COc1cccc(NC(=O)N2Cc3ccccc3-n3cccc3C2c2cccs2)c1 (stereo not given) | 3.15 | 4.94 | -1.04 | -7.52 | 3.67
33 | C1=C(c2cnc[nH]2)c2ccsc2CC1 | -16.2 | -18.7 | -14 | -25.9 | -31.7
34 | C=C(C)[C@@]12O[C@@H]1[C@@]1(C)C(=C[C@H]2O)CC[C@@H](O)[C@@H]1C | 0 | 6.06 | 10.7 | -6.16 | 0.297
35 | CC1=C[C@H]2O[C@@H]3[C@H](O)[C@@H](O)[C@](C)([C@@]2(CO)C[C@@H]1O)[C@]31CO1 | 7 | 7.65 | 10.3 | -4.35 | 1.3
36 | C=C(C)[C@@]12O[C@@H]1[C@@]1(C)C(=CC2=O)CC[C@@H](OC(C)=O)[C@@H]1C | -1.22 | -8.74 | -7.43 | -20.9 | -6.48
37 | O=C(Nc1ccccc1F)N1Cc2ccccc2-n2cccc2C1c1cccc(Cl)c1 (stereo not given) | 5.76 | 0 | -1.02 | -0.474 | 3.36
38 | O=C(c1ccc2c(c1)OCO2)N1CCC(C(=O)O)(c2ccccc2)CC1 | -8.71 | -2.11 | -0.465 | 2.71 | -0.21
39 | O=C(NCc1ccc(F)cc1)N1Cc2ccccc2-n2cccc2C1c1cccs1 (stereo not given) | 4.37 | 3.9 | -9.86 | -12.8 | -4.65
40 | CC(=O)OCC1=C(C(=O)O)N2C(=O)[C@@H](NC(=O)CCC[C@@H](N)C(=O)O)[C@H]2SC1 | 1.43 | 4.22 | 2.22 | -8.42 | -1.64
41 | Cc1cccc(C2c3cccn3-c3ccccc3CN2C(=O)NCCC(C)C)c1 (stereo not given) | 13.1 | 4.67 | 8.8 | 3.05 | 5.85
42 | CCC1c2cccn2-c2ccccc2CN1C(=O)Nc1ccccc1Cl (stereo not given) | -1.52 | 1.81 | 7.86 | 3.31 | 11.1

Row | Compound | activity change, negative = inhibition [1] [%] | activity change, negative = inhibition [2] [%] | activity change, negative = inhibition [3] [%] | activity change, negative = inhibition [4] [%] | activity change, negative = inhibition [5] [%]
43 | CC1=C[C@H]2O[C@@H]3C[C@H]4OC(=O)/C=C/C=C/C(=O)OCC/C(C)=C/C(=O)OC[C@@]2(CC1)[C@]4(C)[C@]31CO1 | -1.25 | -5.98 | -5.81 | -21.4 | -5.79
44 | CCOc1ccccc1NC(=O)N1Cc2ccccc2-n2cccc2C1c1ccccc1 (stereo not given) | 0.134 | 2.95 | -7.08 | -11.2 | -5.88
45 | COc1ccc(C2c3cccn3-c3ccccc3CN2C(=O)Nc2ccc(F)c(Cl)c2)cc1OC (stereo not given) | 12.2 | 1.15 | 3.75 | 2.74 | 6.99
46 | COc1ccc(C2c3cccn3-c3ccccc3CN2C(=O)Nc2cc(C)ccc2OC)cc1 (stereo not given) | 3.05 | 2.83 | -11.7 | -8.77 | -3.12
47 | C[C@@H]1CCC/C=C/[C@H]2C[C@@H](O)C[C@@H]2[C@@H](O)/C=C/C(=O)O1 | 6.86 |  | 10.6 |  | 
48 | CCNC(=O)[C@H]1O[C@@H](n2cnc3c(N)ncnc32)[C@H](O)[C@@H]1O | -8.51 | -5.7 | -5.13 | -8.77 | -2.32
49 | Cc1cccc(C2c3cccn3-c3ccccc3CN2C(=O)Nc2ccccc2F)c1 (stereo not given) | 5.53 | 0 | 0.818 | -0.111 | 2.3
50 | CN1CCc2cc3c(cc2C1C1OC(=O)c2c1ccc1c2OCO1)OCO3 (stereo not given) | -1.08 | 3.88 | 3.2 | -11.7 | 0.785
51 | O=C(Nc1cc(F)ccc1F)N1Cc2ccccc2-n2cccc2C1c1ccccc1 (stereo not given) | 7.45 | 0 | 12.8 | 6.28 | 8.24
52 | OC(CNc1ccccc1)Cn1c2ccc(Br)cc2c2cc(Br)ccc21 (stereo not given) | 6.56 | -22.1 | 4.8 | -37.9 | -7.73
53 | N#Cc1ccccc1-c1cc(-c2ccccn2)cn(-c2ccccc2)c1=O | -7.39 | -20.5 | -8.82 | -30.6 | -17.6
54 | CN1CC2(C1)C(=O)N(C)C(=O)[C@@H]1C[C@@H](O)CN12 | -0.397 | 2.23 | 1.4 | -5.06 | 13
55 | Clc1ccc(N2CC3CCC(C2)N3)nn1 | -10 | 3.24 | -3.88 | -5.96 | 2.6
56 | CC(C)c1ccc(C2c3cccn3-c3ccccc3CN2C(=O)Nc2cc(F)ccc2F)cc1 (stereo not given) | -4.14 | 1 | -8.38 | -12.3 | -4.01
57 | CC[C@@H]1/C=C/C=C/C[C@H](C)C(O)[C@](C)(O)C(=O)[C@H](C)C(O)[C@H](C)C(=O)[C@H](C)[C@@H](O)[C@H](C)/C=C/C(=O)O[C@H]2[C@@H](C)[C@@H](CC1)O[C@]1(O[C@H](C[C@H](C)O)[C@H](C)CC1=O)[C@@H]2C (stereo not given in full) | 6.47 | 9.1 | 7.89 | -5.21 | 7.33
58 | COc1ccc(C2c3cccn3-c3ccccc3CN2C(=O)Nc2cc(C)cc(C)c2)cc1OC (stereo not given) | 14.6 | 2.95 | 6.96 | 5.95 | 9.31
59 | Cc1cccc(C)c1NC1=NCCCS1 | 1.57 | 6.67 | -12.3 | -2.94 | 9.99
60 | CCCCCN(C)CCC(O)(P(=O)(O)O)P(=O)(O)O | -3.54 | 1.67 | -1.11 | -6.27 | 2.91
61 | CC(=O)N(C1CC1)C1CCOC2(CCNCC2)C1 (stereo not given) | -0.84 | -2.09 | 0.432 | -5.74 | -1.72
62 | COc1ccccc1NC(=O)N1Cc2ccccc2-n2cccc2C1c1ccc(OC)c(OC)c1 (stereo not given) | 10.5 | 0 | 5.82 | -1.09 | 4.2
